Patent US20040166530A1 (BAYLOR COLLEGE OF MEDICINE, published 2004)

Biological target: T1, Myc-tagged Cdc53 (Cdc53^M) (S. cerevisiae, UniProt Q12018 1-815)
T1 construct: Expressed from baculovirus in insect cells; not shown: N-terminal Myc tag
T1 sequence (looked up): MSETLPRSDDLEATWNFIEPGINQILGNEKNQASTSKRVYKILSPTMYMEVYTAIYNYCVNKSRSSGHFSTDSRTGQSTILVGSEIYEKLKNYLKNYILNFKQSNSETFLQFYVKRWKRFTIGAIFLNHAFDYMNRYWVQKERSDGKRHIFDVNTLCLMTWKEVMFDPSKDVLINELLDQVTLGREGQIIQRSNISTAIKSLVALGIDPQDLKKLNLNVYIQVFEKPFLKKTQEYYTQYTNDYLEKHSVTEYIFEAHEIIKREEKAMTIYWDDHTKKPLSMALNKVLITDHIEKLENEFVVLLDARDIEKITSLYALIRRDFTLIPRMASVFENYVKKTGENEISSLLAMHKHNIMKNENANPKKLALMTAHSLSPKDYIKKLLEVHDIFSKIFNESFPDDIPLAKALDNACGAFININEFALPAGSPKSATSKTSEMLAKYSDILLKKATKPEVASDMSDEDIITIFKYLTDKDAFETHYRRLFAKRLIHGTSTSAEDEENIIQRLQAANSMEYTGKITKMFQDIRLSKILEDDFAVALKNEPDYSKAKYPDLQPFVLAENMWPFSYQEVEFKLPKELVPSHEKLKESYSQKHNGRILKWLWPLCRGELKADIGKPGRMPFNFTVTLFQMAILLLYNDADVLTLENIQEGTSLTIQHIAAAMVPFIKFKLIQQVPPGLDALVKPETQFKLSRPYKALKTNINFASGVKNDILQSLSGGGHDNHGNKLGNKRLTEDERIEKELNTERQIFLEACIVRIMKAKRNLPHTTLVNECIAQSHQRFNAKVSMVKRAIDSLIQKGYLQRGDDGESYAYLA
Experiment: anti-Myc immunoprecipitation from co-infected insect cells, immunoblot (FIG. 1A)
Description: Insect cells were co-infected with various combinations of baculoviruses expressing Myc-tagged Cdc53 (Cdc53^M), Cdc34, Cdc4, and Skp1. Anti-Myc immune complexes from lysates of these infected cells were immunoblotted to identify associated proteins (See, FIG. 1A). […] Thus, one function of Skp1 is to facilitate association of Cdc53 with Cdc4. […] Furthermore, it appeared that Cdc53 can simultaneously associate with both Cdc34 and Skp1, as the association of Gst-Skp1 with Cdc34 is enhanced in the presence of Cdc53^M (See, FIG. 1C).
For recombinant protein expression and assembly of complexes, 4×10⁵ insect cells (Hi5, Invitrogen) were infected with the indicated virus combinations for 40 hours. These combinations included baculoviruses expressing Myc-tagged Cdc53 (Cdc53^M), Cdc34, Cdc4, and Skp1. Cells were then harvested and disrupted in lysis buffer (50 mM Tris-HCl (pH 7.5), 150 mM NaCl, 0.5% Nonidet P40, 10 mM NaF, 10 mM β-glycerol phosphate, 1 mM PMSF, and 5 μg/ml each leupeptin, antipain, and aprotinin). For isolation of protein complexes, typically about 3 ml of lysis buffer was used per 0.5×10⁸ cells.
To examine the assembly of recombinant yeast proteins, 0.4 ml lysate were typically derived from 2×10⁶ cells. […]

B1: Skp1 (other)
chain: not shown
notes: Untagged, expressed from baculovirus in insect cells; also called yeast Skp1
B1: binds.
